From patent publication US20230149508A1, “COMPOSITIONS AND METHODS FOR TREATING COMPLICATIONS OF VIRAL INFECTIONS AND OTHER RESPIRATORY DISORDERS” (priority 2020, published 2023)

System: cecal-ligation and puncture (CLP) mouse model of sepsis
Experiment: Cecal-ligation and puncture (CLP) mouse model of sepsis
Conditions: 1000 uM aCT1 at 6 hrs post-CLP; lungs at 12 hrs post CLP injury

CC[C@H](C)[C@H](NC(=O)[C@H](CCC(=O)O)NC(=O)[C@H](CC(C)C)NC(=O)[C@H](CC(=O)O)NC(=O)[C@H](CC(=O)O)NC(=O)[C@@H]1CCCN1C(=O)[C@H](CCCNC(=N)N)NC(=O)[C@@H]1CCCN1C(=O)[C@H](CCCNC(=N)N)NC(=O)[C@H](CCCCN)NC(=O)[C@H](CCCCN)NC(=O)[C@H](Cc1c[nH]c2ccccc12)NC(=O)[C@@H]1CCCN1C(=O)[C@H](CCCCN)NC(=O)[C@H](CCCNC(=N)N)NC(=O)[C@H](CCCNC(=N)N)NC(=O)[C@H](CC(N)=O)NC(=O)[C@@H]1CCCN1C(=O)[C@H](Cc1ccccc1)NC(=O)[C@H](Cc1c[nH]c2ccccc12)NC(=O)[C@@H](NC(=O)[C@H](CCCCN)NC(=O)[C@@H]1CCCN1C(=O)[C@H](CCC(N)=O)NC(=O)[C@H](CCCNC(=N)N)NC(=O)CCCCCNC(=O)CCCC[C@@H]1SC[C@@H]2NC(=O)N[C@@H]21)[C@@H](C)CC)C(=O)O [aCT1] ({Biotin-Ahx}-RQPKIWFPNRRKPWKKRPRPDDLEI-OH; N-terminus and C-terminus assumed)
Alveolar edema, lung H&E histopathology: significantly decreased
Immune cell infiltration (intra-alveolar neutrophil accumulation), lung H&E histopathology: significantly decreased

Peptide text beside a SMILES is read from it. * marks the point of attachment. Biotin = O=C1N[C@H]2[C@H](CS[C@H]2CCCCC(=O)*)N1; Ahx = NCCCCCC(=O)O
